# Measured values as given in the supplement of paper PMC8728848.
# Some of the results follow.
# B1: Gal 4 (Homo sapiens), Q8K419 (protein)
# chain: MAYVPAPGYQPTYNPTLPYKRPIPGGLSVGMSVYIQGMAKENMRRFHVNFAVGQDDGADVAFHFNPRFDGWDKVVFNTMQSGQWGKEEKKKSMPFQKGKHFELVFMVMPEHYKVVVNGNSFYEYGHRLPVQMVTHLQVDGDLELQSINFLGGQPAAAPYPGAMTIPAYPAGSPGYNPPQMNTLPVMTGPPVFNPRVPYVGALQGGLTVRRTIIIKGYVLPTARNFVINFKVGSSGDIALHLNPRIGDSVVRNSFMNGSWGAEERKVAYNPFGPGQFFDLSIRCGMDRFKVFANGQHLFDFSHRFQAFQMVDTLEINGDITLSYVQI
# How the values were obtained:
# Experiment in all cases: glycan array binding signal (z-score within array); higher = stronger binding
# Conditions in all cases: glycan notation: IUPAC condensed, linker removed
# [1] = biological target: Gal(b1-3)GlcNAc6S
# How it was run: (§1)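 From the Consortium for Functional Glycomics database, 3228 arrays were curated, keeping only those whose protein sequence was available. Binding is given as a within-array Z-score averaged across arrays sharing a protein sequence and across linkers. Negative Z-scores can be read as non-binding.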
# [2] = biological target: Gal(b1-3)[Fuc(a1-4)]GlcNAc
# How it was run: as §1
# [3] = biological target: Gal(b1-3)[Fuc(a1-4)]GlcNAc(b1-2)Man(a1-3)[Gal(b1-3)[Fuc(a1-4)]GlcNAc(b1-2)Man(a1-6)]Man(b1-4)GlcNAc(b1-4)GlcNAc
# How it was run: as §1
# [4] = biological target: Gal(b1-3)[Fuc(a1-4)]GlcNAc(b1-2)Man(a1-3)[Gal(b1-3)[Fuc(a1-4)]GlcNAc(b1-2)Man(a1-6)]Man(b1-4)GlcNAc(b1-4)[Fuc(a1-6)]GlcNAc
# How it was run: as §1
# [5] = biological target: Gal(b1-3)[Fuc(a1-4)]GlcNAc(b1-3)Gal(b1-3)[Fuc(a1-4)]GlcNAc
# How it was run: as §1
# [6] = biological target: Gal(b1-3)[Fuc(a1-4)]GlcNAc(b1-3)Gal(b1-4)GlcNAc
# How it was run: as §1
# [7] = biological target: Gal(b1-3)[Fuc(a1-4)]GlcNAc(b1-3)Gal(b1-4)[Fuc(a1-3)]GlcNAc
# How it was run: as §1
# [8] = biological target: Gal(b1-3)[Fuc(a1-4)]GlcNAc(b1-6)GalNAc
# How it was run: as §1
# [9] = biological target: Gal(b1-3)[GlcNAc(b1-6)]GalNAc
# How it was run: as §1
# [10] = biological target: Gal(b1-3)[Neu5Ac(a2-6)]GalNAc
# How it was run: as §1
# [11] = biological target: Gal(b1-3)[Neu5Ac(a2-6)]GlcNAc(b1-6)Gal(b1-4)Glc
# How it was run: as §1
# [12] = biological target: Gal(b1-3)[Neu5Ac(b2-6)]GalNAc
# How it was run: as §1
# [13] = biological target: Gal(b1-4)Gal
# How it was run: as §1
# [14] = biological target: Gal(b1-4)GalNAc(a1-3)[Fuc(a1-2)]Gal(b1-4)GlcNAc
# How it was run: as §1
# [15] = biological target: Gal(b1-4)GalNAc(b1-3)[Fuc(a1-2)]Gal(b1-4)GlcNAc
# How it was run: as §1
# [16] = biological target: Gal(b1-4)Glc
# How it was run: as §1
# [17] = biological target: Gal(b1-4)Glc6S
# How it was run: as §1
# [18] = biological target: Gal(b1-4)GlcNAc
# How it was run: as §1
# [19] = biological target: Gal(b1-4)GlcNAc(a1-6)Gal(b1-4)GlcNAc
# How it was run: as §1
# [20] = biological target: Gal(b1-4)GlcNAc(b1-2)Man
# How it was run: as §1
# [21] = biological target: Gal(b1-4)GlcNAc(b1-2)Man(a1-3)Man(b1-4)GlcNAc(b1-4)GlcNAc
# How it was run: as §1
# [22] = biological target: Gal(b1-4)GlcNAc(b1-2)Man(a1-3)[Gal(b1-4)GlcNAc(b1-2)Man(a1-6)]Man(b1-4)GlcNAc(b1-4)GlcNAc
# How it was run: as §1
# [23] = biological target: Gal(b1-4)GlcNAc(b1-2)Man(a1-3)[Gal(b1-4)GlcNAc(b1-2)Man(a1-6)]Man(b1-4)GlcNAc(b1-4)[Fuc(a1-6)]GlcNAc
# How it was run: as §1
# [24] = biological target: Gal(b1-4)GlcNAc(b1-2)Man(a1-3)[Gal(b1-4)GlcNAc(b1-2)][GlcNAc(b1-4)]Man(b1-4)GlcNAc(b1-4)GlcNAc
# How it was run: as §1
# [25] = biological target: Gal(b1-4)GlcNAc(b1-2)Man(a1-3)[GlcNAc(b1-2)Man(a1-6)]Man(b1-4)GlcNAc(b1-4)GlcNAc
# How it was run: as §1
# [26] = biological target: Gal(b1-4)GlcNAc(b1-2)Man(a1-3)[Man(a1-6)]Man(b1-4)GlcNAc(b1-4)GlcNAc
# How it was run: as §1
# [27] = biological target: Gal(b1-4)GlcNAc(b1-2)Man(a1-6)Man(b1-4)GlcNAc(b1-4)GlcNAc
# How it was run: as §1
# [28] = biological target: Gal(b1-4)GlcNAc(b1-2)Man(a1-6)[GlcNAc(b1-2)Man(a1-3)]Man(b1-4)GlcNAc(b1-4)GlcNAc
# How it was run: as §1
# [29] = biological target: Gal(b1-4)GlcNAc(b1-2)Man(a1-6)[Man(a1-3)]Man(b1-4)GlcNAc(b1-4)GlcNAc
# How it was run: as §1
# [30] = biological target: Gal(b1-4)GlcNAc(b1-2)[Gal(b1-4)GlcNAc(b1-4)]Man(a1-3)[Gal(b1-4)GlcNAc(b1-2)Man(a1-6)]Man(b1-4)GlcNAc(b1-4)GlcNAc
# How it was run: as §1
# [31] = biological target: Gal(b1-4)GlcNAc(b1-2)[Gal(b1-4)GlcNAc(b1-4)]Man(a1-3)[Gal(b1-4)GlcNAc(b1-2)[Gal(b1-4)GlcNAc(b1-6)]Man(a1-6)]Man(b1-4)GlcNAc(b1-4)GlcNAc
# How it was run: as §1
# [32] = biological target: Gal(b1-4)GlcNAc(b1-2)[Gal(b1-4)GlcNAc(b1-4)]Man(a1-3)[GlcNAc(b1-4)][Gal(b1-4)GlcNAc(b1-2)Man(a1-6)]Man(b1-4)GlcNAc(b1-4)GlcNAc
# How it was run: as §1
# [33] = biological target: Gal(b1-4)GlcNAc(b1-2)[Gal(b1-4)GlcNAc(b1-4)]Man(a1-3)[GlcNAc(b1-4)][Gal(b1-4)GlcNAc(b1-2)[Gal(b1-4)GlcNAc(b1-6)]Man(a1-6)]Man(b1-4)GlcNAc(b1-4)GlcNAc
# How it was run: as §1
# [34] = biological target: Gal(b1-4)GlcNAc(b1-2)[Gal(b1-4)GlcNAc(b1-4)]Man(a1-3)[GlcNAc(b1-4)][Gal(b1-4)GlcNAc(b1-2)[Gal(b1-4)GlcNAc(b1-6)]Man(a1-6)]Man(b1-4)GlcNAc(b1-4)[Fuc(a1-6)]GlcNAc
# How it was run: as §1
# [35] = biological target: Gal(b1-4)GlcNAc(b1-2)[Gal(b1-4)GlcNAc(b1-6)]Man(a1-6)[Gal(b1-4)GlcNAc(b1-2)Man(a1-3)]Man(b1-4)GlcNAc(b1-4)GlcNAc
# How it was run: as §1
# [36] = biological target: Gal(b1-4)GlcNAc(b1-2)[Gal(b1-4)GlcNAc(b1-6)]Man(a1-6)[Gal(b1-4)GlcNAc(b1-2)Man(a1-3)]Man(b1-4)GlcNAc(b1-4)[Fuc(a1-6)]GlcNAc
# How it was run: as §1
# [37] = biological target: Gal(b1-4)GlcNAc(b1-2)[Gal(b1-4)GlcNAc(b1-6)]Man(a1-6)[GlcNAc(b1-4)][Gal(b1-4)GlcNAc(b1-2)Man(a1-3)]Man(b1-4)GlcNAc(b1-4)GlcNAc
# How it was run: as §1
binder,measurement,setting,value
B1,glycan array binding signal (z-score),[1],0.692
same,glycan array binding signal (z-score),[2],-0.193
same,glycan array binding signal (z-score),[3],0.009
same,glycan array binding signal (z-score),[4],-0.174
same,glycan array binding signal (z-score),[5],-0.198
same,glycan array binding signal (z-score),[6],-0.185
same,glycan array binding signal (z-score),[7],-0.193
same,glycan array binding signal (z-score),[8],-0.193
same,glycan array binding signal (z-score),[9],-0.174
same,glycan array binding signal (z-score),[10],-0.197
same,glycan array binding signal (z-score),[11],-0.177
same,glycan array binding signal (z-score),[12],-0.206
same,glycan array binding signal (z-score),[13],-0.201
same,glycan array binding signal (z-score),[14],2.3
same,glycan array binding signal (z-score),[15],-0.196
same,glycan array binding signal (z-score),[16],-0.126
same,glycan array binding signal (z-score),[17],0.106
same,glycan array binding signal (z-score),[18],-0.172
same,glycan array binding signal (z-score),[19],-0.188
same,glycan array binding signal (z-score),[20],-0.212
same,glycan array binding signal (z-score),[21],-0.2
same,glycan array binding signal (z-score),[22],-0.203
same,glycan array binding signal (z-score),[23],-0.194
same,glycan array binding signal (z-score),[24],-0.201
same,glycan array binding signal (z-score),[25],-0.204
same,glycan array binding signal (z-score),[26],-0.185
same,glycan array binding signal (z-score),[27],-0.201
same,glycan array binding signal (z-score),[28],-0.197
same,glycan array binding signal (z-score),[29],-0.204
same,glycan array binding signal (z-score),[30],-0.188
same,glycan array binding signal (z-score),[31],-0.189
same,glycan array binding signal (z-score),[32],-0.199
same,glycan array binding signal (z-score),[33],-0.215
same,glycan array binding signal (z-score),[34],-0.204
same,glycan array binding signal (z-score),[35],-0.211
same,glycan array binding signal (z-score),[36],-0.192
same,glycan array binding signal (z-score),[37],-0.214
